# The whole screen tested about 340,000 compounds, of which about 6,900 (2%) were called active. No stated cut-off is given here; in the data, active means inhibition above about 30%; inactive means below that, where a call was filed. The entries are a selection whose mix differs from that of the whole data set. Where no call is shown, the source filed none.
# Target: D(2) dopamine receptor (Homo sapiens) (UniProt P14416)
# Assay: HTS Assay for Allosteric Antagonists of the Human D2 Dopamine Receptor: Primary Screen for Antagonists; further: 0% is about no effect
# Conditions: HEK293 TREx D2 cells, calcium flux, dopamine EC80; at 10 µM; stronger effect = higher value
# How it was run: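 Tetracycline-induced HEK293 T-REx cells expressing D2 force-coupled to calcium signalling were dye-loaded, exposed to compound for 180 s, then challenged with an EC80 of dopamine; calcium flux was followed kinetically for a further 180 s.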
# UniProt P14416, sequence (P14416 whole entry, looked up): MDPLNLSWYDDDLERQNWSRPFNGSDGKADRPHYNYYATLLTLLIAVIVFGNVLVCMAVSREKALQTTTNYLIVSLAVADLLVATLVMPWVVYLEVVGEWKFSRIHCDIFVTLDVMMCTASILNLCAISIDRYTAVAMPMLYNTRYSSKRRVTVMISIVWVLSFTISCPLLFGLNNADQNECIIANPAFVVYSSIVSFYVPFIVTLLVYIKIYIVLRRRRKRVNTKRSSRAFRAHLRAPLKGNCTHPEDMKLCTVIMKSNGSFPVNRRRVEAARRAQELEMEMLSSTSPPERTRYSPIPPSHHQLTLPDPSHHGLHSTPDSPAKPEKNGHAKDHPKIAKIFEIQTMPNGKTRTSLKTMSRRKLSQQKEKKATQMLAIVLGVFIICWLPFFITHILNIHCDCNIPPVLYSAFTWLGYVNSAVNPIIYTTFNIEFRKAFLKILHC
row,Compound,inhibition
1,COc1ccc(NC(=O)c2ccc3c(c2)c(C)c(C)n3Cc2ccc(F)cc2)cc1,6.83%
2,CC1CCC(N2CC(=O)N(C3CCCC3)C(c3ccc(Cl)cc3)C2=O)CC1 (centres undefined),17.3%
3,Cc1ccc(C)c(CN2C(=O)c3ccccc3Sc3ccc(C(=O)NCc4cccs4)cc32)c1,-14.4%
4,COc1ccc(NC(=O)c2c(N)c(C(=O)c3ccc(C)cc3)n3ccccc23)cc1OC,3.87%
5,Cc1ccc(Cl)cc1N1CCN(C(=O)c2cn(C)c3ccc(S(=O)(=O)N(C)C4CCCCC4)cc3c2=O)CC1,4.47%
6,COc1ccc(CNC(=O)CCc2nc3cccnc3n2Cc2ccccc2)cc1,-1.03%
7,Cc1cccc(N2CCN(C(=O)c3c(C)oc4nc(C)nc(N5CCCC5)c34)CC2C)c1 (centres undefined),7.79%
8,CC(=O)Nc1ccc(NC(=O)C(Cc2ccccc2)N2Cc3ccccc3C2=O)cc1 (centres undefined),-5.15%
9,Cc1ccc(C)c(N2CCN(CCCc3ccccc3)CC2)c1,active: 51.3%
10,Cc1ccc(NC(=O)Cn2c(=O)n(CCC(=O)NCCc3ccccc3)c(=O)c3ccccc32)cc1,9.81%
11,Cc1ccc(-n2ncc3c(Nc4cccc(C)c4)ncnc32)cc1,10.8%
12,O=C(Nc1c(C(=O)N2CCC(N3CCCCC3)CC2)oc2ccccc12)c1c(F)cccc1F,14.2%
13,Cn1cc(S(=O)(=O)c2ccccc2)c(=O)c2cc(F)c(N3CCN(c4ccc(F)cc4)CC3)cc21,-6.54%
14,Cc1ccc(-c2nnc(Nc3ccc(Cl)cc3)c3ccccc23)cc1S(=O)(=O)N1CCOCC1,1.59%
15,CN(C)S(=O)(=O)c1ccc2c(c1)N(CC(=O)N1CCCCC1)CCS2,8.49%
16,CC(C)(C)C(=O)NC(=S)NNC(=O)C(c1ccccc1)c1ccccc1,active: 75.3%
17,O=C(C1CCN(c2nc3ccccc3[nH]2)CC1)N1CCN(c2ccccc2)CC1,18.7%
18,COc1ccccc1NC(=O)CCn1nc(-c2ccccc2)c2ccccc2c1=O,-6.77%
19,CN(C(=O)c1ccc2c(c1)N(Cc1ccccc1F)C(=O)c1ccccc1S2)C1CCCCC1,11%
20,CCCN1CCN(CCCNC(=O)c2ccc3c(c2)sc2nc(-c4ccc(C)cc4)cn23)CC1,10.5%
21,Cc1cccc(NCc2nnc3n2CCCCC3)c1C,11.9%
22,COc1ccccc1N1CCN(c2nc3ccc(C)cc3nc2-n2nc(C)cc2C)CC1,-1.77%
23,COc1ccccc1-c1oc2ccccc2c1C#CC(C)(C)O,active: 52.4%
24,Cc1cccc(-c2noc(-c3ccc(NCC4CCCO4)c([N+](=O)[O-])c3)n2)c1 (centres undefined),14%

row,Compound,inhibition
1,CCOC(=O)c1c(C)n(-c2ccccc2)c2ccc(OC(=O)c3ccc(OCC)c(OCC)c3)cc12,-14%
2,O=C1N(CN2CCN(c3cccc(Cl)c3)CC2)c2ccccc2C12OCCCO2,active: 33.4%
3,COc1ccc(NC(=O)c2cc3c([nH]c2=O)CC(c2ccccc2)CC3=O)cc1 (centres undefined),16.7%
4,CCCOc1ccc(OC(=O)c2c(-c3ccccc3Cl)noc2C)cc1,-1.22%
5,COc1ccc(NC(=O)Cn2c(=O)n(-c3ccc(CC(=O)NCC4CCCO4)cc3)c(=O)c3ccccc32)c(OC)c1 (centres undefined),12.3%
6,COc1ccc(C2=Nn3c(nc4sc(C(=O)Nc5cccc(C)c5)c(C)c4c3=O)SC2)cc1,15.8%
7,COc1ccc(NC(=O)c2ccc3c(c2)c(C)c(C)n3Cc2ccc(F)cc2)c(OC)c1,7.59%
8,COc1cccc(CN2C(=O)c3ccccc3Sc3ccc(C(=O)NCCc4ccc(Cl)cc4)cc32)c1,-5.98%
9,COc1ccc(-c2nn3c(-c4ccc(C)cc4)nnc3c3ccccc23)cc1,-1.44%
10,CCc1ccc(OCC(=O)N(Cc2ccco2)Cc2ccco2)cc1,3.85%
11,COc1ccc(-c2nn(-c3ccccc3C)cc2CNCc2cccnc2)cc1F,active: 39.4%
12,CCCCn1cc(S(=O)(=O)c2ccc(OC)cc2)c(=O)c2cc(F)c(F)cc21,5.31%
13,Clc1cccc(-c2csc(-c3nc(-c4ccc(Br)s4)cs3)n2)c1,0.518%
14,CCOc1ccc(NC(=O)c2cc(S(=O)(=O)NC3CCCC3)ccc2F)cc1,-4.54%
15,CCc1ccc(NC(=O)CSc2nc(-c3ccccc3)c(C#N)c(=O)[nH]2)cc1,13.9%
16,C=CCn1c(=S)[nH]c2scc(-c3ccc(C)o3)c2c1=O,active: 31.8%
17,COc1ccc2c(c1)CCc1c(C(=O)Nc3ccccc3C(F)(F)F)noc1-2,3.71%
18,O=C(CC1N=C2c3ccccc3N=C(SCc3ccc(F)cc3)N2C1=O)NCc1cccs1 (centres undefined),-22.2%
19,CCOC(=O)c1scc(-c2ccc(C)cc2)c1S(=O)(=O)Nc1cc(Cl)ccc1OC,-15.7%
20,CCn1c(SCC(=O)c2ccc([N+](=O)[O-])cc2)nnc1-c1ccc(Cl)cc1,-5.98%
21,COc1cccc(CNC(=O)Cn2cc3c(n2)-c2c(oc(C(=O)N4CCCC4)c2C)CC3)c1,-10.4%
22,CCOC(=O)C1=C(CN2CCN(CC)CC2)NC(=O)NC1c1ccc(Cl)cc1 (centres undefined),9.8%
23,Cc1cc(C(=O)NCc2ccccc2C)c2c(C)nn(-c3cccc(F)c3)c2n1,-7.74%
24,CCCCCCn1c(CNC(=O)c2ccccc2)nc2ccccc21,2.01%

row,Compound,inhibition
1,Cc1ccc(OCc2nc(-c3ccc(C(=O)N4CCN(c5ccc(Cl)cc5)CC4)cc3)oc2C)cc1,-2.83%
2,O=C(CCN1CCN(c2ccccc2)CC1)N/N=C/c1ccccc1O,active: 91.3%
3,CC(C)Oc1ccc(CNC(=O)Cn2c(=O)oc3ccccc32)cc1,19.8%
4,CC(C)CCNC(=O)CSc1c2c(nc3ccc(Cl)cc13)CCCC2,9.51%
5,CCOc1ccc(CNC(=O)C2CCCN(S(=O)(=O)c3ccc4c(c3)CCCC(=O)N4)C2)cc1 (centres undefined),4.2%
6,Cc1nn(Cc2ccc(Cl)cc2)c(C)c1NC(=O)c1noc2c1CCc1ccccc1-2,8.61%
7,COC(=O)c1ccc(-n2c(/C=C\c3cccc(Br)c3)nc3ccccc3c2=O)cc1,-19.3%
8,CCc1nc2ccccc2n1CCCCOc1ccccc1C,-2.61%
9,Cc1ccc(S(=O)(=O)C(CNC(=O)C(=O)NCCc2ccccc2)c2ccco2)cc1 (centres undefined),7.52%
10,Cc1ccc2c(c1)NC(=O)C(CC(=O)NCCCN1CCN(c3cc(Cl)ccc3C)CC1)O2 (centres undefined),active: 52.9%
11,CCCn1c(SCC(O)c2cccc(OC)c2)nc2ccccc21 (centres undefined),-9.59%
12,O=C(Nc1ccc(N2CCN(CCOc3ccc(Cl)cc3)CC2)c(C(=O)O)c1)c1ccc(F)cc1,-10.8%
13,COc1ccc(CNC(=O)c2nnn(CC(=O)Nc3cc(C)cc(C)c3)c2N)cc1,-19.6%
14,COc1ccccc1C(=O)NC1(C(F)(F)F)C(=O)Nc2c1c(=O)[nH]c(=O)n2CCc1ccccc1 (centres undefined),11.5%
15,Cc1ccc(C)c(CN2CCCN(Cc3cc(C)ccc3C)S2(=O)=O)c1,-13.7%
16,COc1ccc(CNC(=O)C2CCN(c3nc4ccc(C)cc4[nH]3)CC2)cc1,16.8%
17,CCn1c2c(c(=O)n3ncc(C(=O)Nc4cccc(Cl)c4C)c13)CN(Cc1ccc(OC)cc1)CC2,5.07%
18,C=C(C)CSc1nc2sc3c(c2c(=O)n1CCCC)CCCC3,-2.27%
19,CCOC(=O)c1c(C)[nH]c(C)c1S(=O)(=O)N1CCC(C(=O)NCc2ccc(C)cc2)CC1,5.47%
20,CCCC(O)c1nc2ccccc2n1CCCCOc1ccc(OC)cc1 (centres undefined),24.9%
21,Cc1cc(C)cc(NC(=O)CSc2nncn3c2cc2occc23)c1,-15.4%
22,COc1cc(CNCCCN2CCOCC2)cc(Br)c1OCC(=O)N1CCCCC1,active: 32.3%
23,COc1ccc(CCNC(=O)CCCCn2c(=O)c3ccccc3n(CC(=O)Nc3ccccc3C)c2=O)cc1OC,-15.7%
24,CCCOc1cccc(C(=O)Nc2ccc(-c3nc4ccccc4s3)c(Cl)c2)c1,2.03%

row,Compound,inhibition
1,COc1ccc(S(=O)(=O)c2cn(Cc3ccccc3)c3cc(N4CCCC4)c(F)cc3c2=O)cc1,4.17%
2,CCN1C(C(=O)c2ccccc2)=C(OC(=O)C(C)C)c2ccccc2S1(=O)=O,-15.3%
3,CCc1ccccc1NC(=O)Cn1c(=O)nc(-c2ccccc2)c2ccccc21,10.5%
4,COc1ccc(CCNC(=O)CCn2c(=O)c3ccccc3n(Cc3ccc(Cl)cc3)c2=O)cc1OC,3.68%
5,CCn1c(=O)c2cc(C(=O)NC3CCCCCC3)sc2c2ccccc21,-0.927%
6,O=c1oc2c(CN3CCOCC3)c(O)ccc2cc1-c1ccc(Cl)cc1,5.22%
7,CCOC(=O)c1sc(NC(=O)c2nc3ncccn3n2)c(C(=O)OC)c1C,-3.9%
8,O=S(=O)(NCc1ccccc1)c1ccc(-c2cnc(C3CC3)o2)cc1,-20.9%
9,CCc1ccc(CSc2nc(-c3ccc(OC)cc3)nc3c2Cc2c(CO)cnc(C)c2O3)cc1,-7.91%
10,COc1ccc(CNC(=O)CN(c2ccccc2OC)S(=O)(=O)c2ccc(C)cc2)cc1,-0.548%
11,CC(NC(=O)c1ccc2c(c1)N(Cc1ccc(Cl)cc1)C(=O)c1ccccc1S2(=O)=O)c1ccccc1 (centres undefined),-4.06%
12,CC1CCCCN1C(=O)/C=C/c1ccccc1[N+](=O)[O-] (centres undefined),active: 30.1%
13,CCOc1ccc(CCNC(=O)Cn2nc(CC)n3c(cc4sc(CC)cc43)c2=O)cc1OCC,2.53%
14,CCCCCn1c(=N)c(S(=O)(=O)c2ccccc2)cc2c(=O)n3ccccc3nc21,-0.109%
15,COc1ccccc1CNC(=O)Cc1csc2nc(-c3ccc(Cl)cc3)cn12,-7.11%
16,Cc1sc(NC(=O)c2ccco2)c(CN2CCN(c3ccc(F)cc3)CC2)c1C,active: 33%
17,CCOc1cc(CNC(=O)c2ccc(C)c(NC(=O)c3nsc4ccccc34)c2)ccc1OC,-3.71%
18,CCc1ccc(N2C(=O)CC(c3cc(OC)ccc3OC)C3=C2COC3=O)cc1 (centres undefined),-11.3%
19,COc1ccc(CNC(=O)CSc2nc3ccsc3c(=O)n2Cc2ccccc2Cl)cc1,-26.8%
20,Cc1cc2oc(C(=O)Nc3sc4c(c3C(=O)NCC3CCCO3)CCC4)cc(=O)c2cc1C (centres undefined),-9.92%
21,O=C(Nc1ccc2oc(-c3cccnc3)nc2c1)c1ccc(-c2ccc(Cl)cc2)o1,-4.87%
22,Cc1ccc(NC(=O)Cn2ncn3c(cc4ccccc43)c2=O)c(C)c1,-9.25%
